Data from PMC12136788.
This is one part of the list.

T1: UNK ZnF1-3 (human, UniProt Q9C0B0 31-174)
T1 sequence: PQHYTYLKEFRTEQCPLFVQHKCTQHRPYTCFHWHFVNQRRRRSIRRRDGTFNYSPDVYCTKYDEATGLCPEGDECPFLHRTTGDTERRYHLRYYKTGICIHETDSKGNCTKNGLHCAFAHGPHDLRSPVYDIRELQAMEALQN

B1: chr3:131220538:131220539:-_ENSG00000114686_ENST00000264995|hu_mus|FALSE|FALSE (ssRNA)
RNA: GGGAGUUCUACAGUCCGACGAUCUUCUUCAGAAAGAUGUUCAUCCCACCAAGUACUACUCUUGCUGUGGAGAUUUCUAACAAAGAACAAGAUAUUCUUUCUUCUCUCUAAGCCGGGGUCAGCACCUAGGCCUCUGGCGCCACACAACAGAGGAUUGAGCAUCA
B2: 135516496_135516616_5143_3pUTR_ENSG00000113658_ENST00000545279|human|control|control (ssRNA)
RNA: GGGAGUUCUACAGUCCGACGAUCCAUGAACCCCAGUUCUAAUCUUGACAACAGAUUUCAGGUAUGAGUACUUAAUAAUCACUUCACAUCCUGAAGGAUAUCUUACUCUCAAAUGUUAUGAAAGGUAUAAAAUAGCUACAUCCUCAACAGAGGAUUGAGCAUCA
B3: chr12:96259795:96259796:+_ENSG00000139343_ENST00000266735|hu_hu|motif|central (ssRNA)
RNA: GGGAGUUCUACAGUCCGACGAUCAAGGACAUUAUUACACCUUAUUAAAACUUCACCCAGAUGUCCAGACAAAGCUCCAUCGGUGUAUUCUUCUGUAUUUGCAAGCUGCAUGUUCAUGUAGCCAUCUACAGAUACCAGAUAGCCCAACAGAGGAUUGAGCAUCA
B4: chr4:175231952:175231953:+_ENSG00000164118_ENST00000503780|hu_mus|FALSE|FALSE (ssRNA)
RNA: GGGAGUUCUACAGUCCGACGAUCGGGUACAAAGUCCACAUCACUAAUUGACUCACAGUCUUGACUUGCCACAUUACGCUCUACAGAUUCACUCUUUUUGGACAACAGCAUCUCCGUUUCUAGAAGAGUGACACGACUUAGAAGCAACAGAGGAUUGAGCAUCA
B5: chr11:77340908:77340909:-_ENSG00000074201_ENST00000525064|hu_hu|hu_hu_hu_mus_True|18_18 (ssRNA)
RNA: GGGAGUUCUACAGUCCGACGAUCGUUUGGAUCCCUGGACACCGCAUGUAAACUAAUGGUGGGGUAUUCCAGUGAGAAUCCUAAUCCCGAACCAUCUAACCAGGACAGGCGGCUCUCAGCGAUGUAAAGCGUGCCGGUGCCGAGCAACAGAGGAUUGAGCAUCA
B6: 77287842_77287962_3175_CDS_ENSMUSG00000036377_ENSMUST00000163347|mouse|control|control (ssRNA)
RNA: GGGAGUUCUACAGUCCGACGAUCCACUAAGUGGGGUCUGCUCAGUUUGGAGAGUGGGGAUGAAGGUGGGGUCUGGCUGGCAGGCUUGGGAGCCAGGGCCGGCUUCUGCAUGGAUGGCAUUUUGCUUACUGCCCUGUCUUGCUCCAACAGAGGAUUGAGCAUCA
B7: chr12:39756943:39756944:-_ENSG00000139116_ENST00000544797|hu_mus|hu_hu_hu_mus_False|18_38 (ssRNA)
RNA: GGGAGUUCUACAGUCCGACGAUCGGUUUGGCUGUUACCCCCAAGGGAAUCCUGCAAGAGUCUUGUCAGCUUAGAGUCUCUGUAAGGGACAUGGGUGGCCCUCUUGCUCUUGUCCCCCAAGGCACUUAUUACAUUCCCAAGAGCCAACAGAGGAUUGAGCAUCA
B8: chr17:2570287:2570288:+_ENSG00000007168_ENST00000397195|hu_hu|FALSE|FALSE (ssRNA)
RNA: GGGAGUUCUACAGUCCGACGAUCCUGACCAAGAGGUCCACCUGACGUAAAUUCUUCUUUUGCUUCAUUUAGCUUUGAUUCUAAUUCCAUAACCUUCUUUUGUAAUCUAAUAACAGAUGUCCAUUUUUUUUCCAAAAGACCAGCCAACAGAGGAUUGAGCAUCA
B9: chr2:61275951:61275952:+_ENSG00000162928_ENST00000295030|hu_hu|motif|central (ssRNA)
RNA: GGGAGUUCUACAGUCCGACGAUCGUUUUCAUUGGAUUGUACAUUCAUUUCUUUGUGAGAAAUAAUUUUAAAAAGUACUCGGAAGUAUUGUUCAACUGCAGGCAAACAUGAAAGAUAUCAAAGAUCUUGCUUUUCUCCAUCUUUCAACAGAGGAUUGAGCAUCA
B10: 4150348_4153603_2001_CDS_ENSG00000167325_ENST00000300738|human|control|control (ssRNA)
RNA: GGGAGUUCUACAGUCCGACGAUCAGGUUCAAUGGACUCAUUAUUCCCCAGGAUCUGAGCAGUGGAAGCUGUAGGCAUCGGGGCAAUAAGUAAACUGUUUCUUAUACCAUACUUUGCAAUCUUCUCCUUGAGAACCUUCCAGUCCAACAGAGGAUUGAGCAUCA
B11: chr1:39494564:39494565:+_ENSG00000168653_ENST00000372967|hu_hu|hu_hu_hu_mus_True|1_88 (ssRNA)
RNA: GGGAGUUCUACAGUCCGACGAUCAUGCAUUCGCCUCAUCGUUUUGUGCCGAAGCAAGCACUCUUCGAAGUCAUCGAACUCUAUCUUGCACUCCUUUUUCGCCCGGGUCCCACCGAUCCCGUGUGCACACUCUAUCCAUUCUUUCAACAGAGGAUUGAGCAUCA
B12: chr7:135612270:135612271:-_ENSG00000105887_ENST00000393085|hu_mus|hu_hu_hu_mus_False|8_48 (ssRNA)
RNA: GGGAGUUCUACAGUCCGACGAUCGUUUUUUUCUGAGAUGUUAAAUAGUACUUCAGUGGAAAACAAAACUUAACCUUUUAUUAAUGCAUGUAGUACCAAAAGCAGACAUUUUAGCUUCAUUUAUUCACUCAAAAUAUCAUUAAGCAACAGAGGAUUGAGCAUCA
B13: chr13:103288631:103288632:+_ENSG00000134900_ENST00000376065|hu_hu|FALSE|FALSE (ssRNA)
RNA: GGGAGUUCUACAGUCCGACGAUCCUGAACAGGAUCUCGGAGGUAGAUGCCACGGUUAUUUCCAACAGUAACAGUAAAACCUAAUUUAUUAGCAAAUGAUGUAUUCUGAACGAGGUAGUCAUAGGCUUUAUCAACCUGAAUAAUCAACAGAGGAUUGAGCAUCA
B14: chr8:48874918:48874919:+_ENSG00000104738_ENST00000523944|hu_hu|motif|central (ssRNA)
RNA: GGGAGUUCUACAGUCCGACGAUCAUUUACAUCUGUUCCCCAGAUCACAAGUUUUUGGCCUAGAGACUGCUCACUUGCCACGGUAUCUUCUGCUGCUGCCCCGUCAGACUGCAGAUCCACUUGCAGGCCCUUCUGUGCAGAGCCCAACAGAGGAUUGAGCAUCA
B15: chr2:136389457:136389458:+_ENSG00000048991_ENST00000409478|hu_hu|FALSE|FALSE (ssRNA)
RNA: GGGAGUUCUACAGUCCGACGAUCCUGAUCAACAUUGUGGUCUAAUCCAAAGUAAGCGGCUACUCUGUGUAAUAGCAUCCUAUGGUAAGAUGUCAUUGGGGGGAAUUUUUUACGUGGAGACUCAUUAUUACCAAUGAAAUCUAACAACAGAGGAUUGAGCAUCA
B16: chr4:17845017:17845018:+_ENSG00000109805_ENST00000514176|hu_mus|hu_hu_hu_mus_False|18_58 (ssRNA)
RNA: GGGAGUUCUACAGUCCGACGAUCGCUCUCUUAACUUGUAUCUUCAUUAAGGAACUCUGCAAGGUUAAGUUUACUUUUUCUAGUGCUAGCUGUUUUGGCUCGUCUGGGUAAUCUCAUUUCAUUUCUGGAUGGUGGUUCAUGAUCCAACAGAGGAUUGAGCAUCA
B17: chr10:33214929:33214930:-_ENSG00000150093_ENST00000302278|hu_hu|hu_hu_hu_mus_True|18_98 (ssRNA)
RNA: GGGAGUUCUACAGUCCGACGAUCAACAAGUUCAUUGAAUACUUCUCCUCUGUCAGUAAGACUAAGCACAUUUUUGUAGCUAAAUGGGCUGGUGCAGUUUUGUUCACUUGUACAAGGGUUCCUGAGCUUUGCUGGGGUUGUGCUCAACAGAGGAUUGAGCAUCA
B18: chr7:54823571:54823572:-_ENSG00000132432_ENST00000352861|hu_mus|hu_hu_hu_mus_False|58_58 (ssRNA)
RNA: GGGAGUUCUACAGUCCGACGAUCUCCCAUGAUAGCAAAUCCUAUAGCUGUAGCCAUGGCAAUCUUCUGGAAUUCUUUUCUAUCAGGUUUGGUGCAUCUUUUAACCAGCCGAAUUGAGUCCUUUACAAACUGCCGGCUGGGCUCCAACAGAGGAUUGAGCAUCA
B19: 85003670_85003790_3496_3pUTR_ENSMUSG00000018481_ENSMUST00000018625|mouse|control|control (ssRNA)
RNA: GGGAGUUCUACAGUCCGACGAUCUCCCCUCACCGACAUACAAACAUGCUAACAAAACAGAAUCUGACACAUACCCAUUCACUCACACCUCCAAGCACUGCCGGGAGCAGUGUAGCUAACAGCCAAGUCAGAGCCCCUGAAAAUCAACAGAGGAUUGAGCAUCA
B20: chr11:100452292:100452293:-_ENSMUSG00000014195_ENSMUST00000014339|perfect_dup|motif|central (ssRNA)
RNA: GGGAGUUCUACAGUCCGACGAUCCAUUUGUUUUUAUAUUGUUGGGGUCUAUCCCCAGGGCUUCUGUGUACAGUUCAUAUGCGGGUUUGUAAUUUCCUUCCUUAAAUGCUUUAUUCCCAUCUUCUUUCUUUGCUUUGAGUGCUUCAACAGAGGAUUGAGCAUCA
B21: chr12:88580095:88580096:-_ENSMUSG00000021038_ENSMUST00000072744|mus_hu|FALSE|FALSE (ssRNA)
RNA: GGGAGUUCUACAGUCCGACGAUCAAGGGGAUGUCUCAUCACCCAAGCAAGGUCGUCUGUGUUCAAGUGAGAGAAGAACCUUAGGGUUUUGGACAGAGUAAACUGGGGCAGCAGAGGGAAAAUGGCUGAGGAAACACAACGUCUCAACAGAGGAUUGAGCAUCA
B22: chr7:141445308:141445309:+_ENSG00000106028_ENST00000265304|hu_hu|hu_hu_hu_mus_False|8_48 (ssRNA)
RNA: GGGAGUUCUACAGUCCGACGAUCUAUGAUUGUUGUUGCUUGCCGCCUCACAUUGUUUUUAUCCAUGUACUCGCCAUAGUCCACUUUCCCUUCCAAAAAUAUACGAGCCCCCUUUUUCACAUACUGAUAUGCCACGUCUCUGAGCAACAGAGGAUUGAGCAUCA

Target: T1, UNK ZnF1-3
Experiment: nsRBNS (natural sequence RNA bind-n-seq); RBNS binding buffer (assumed for nsRBNS): 25 mM Tris pH 7.5, 150 mM KCl, 3 mM MgCl2, 0.01% Triton X-100, 500 ug/ml BSA, 20 U/ml SUPERase-In, 4 C; UNK is unkempt and MSI1 is Musashi-1; names of the RNAs are library labels; protein concentration not given here; high values mean tight binding

Binder	binding signal
B1	0.685 enrichment R
B2	0.968 enrichment R
B3	0.474 enrichment R
B4	1.04 enrichment R
B5	0.81 enrichment R
B6	0.939 enrichment R
B7	0.723 enrichment R
B8	0.985 enrichment R
B9	0.619 enrichment R
B10	0.831 enrichment R
B11	0.798 enrichment R
B12	0.799 enrichment R
B13	1.03 enrichment R
B14	0.828 enrichment R
B15	0.968 enrichment R
B16	0.391 enrichment R
B17	0.902 enrichment R
B18	0.972 enrichment R
B19	1.54 enrichment R
B20	0.27 enrichment R
B21	1.4 enrichment R
B22	0.805 enrichment R
